Experimental data from paper PMC6529219.
These are yes or no findings as the source states them, for the method shown. In cells and extracts the contact can be indirect. Some entries that bind do so weakly or less than the wild type. Each block holds one molecule with its values, some of them ahead of it.

Protein sequences, listed by entry. Tags and fused reporters are not part of them. Lines headed by an entry give the natural chain unless they say otherwise; changes in a name come on top.
UniProt P54252: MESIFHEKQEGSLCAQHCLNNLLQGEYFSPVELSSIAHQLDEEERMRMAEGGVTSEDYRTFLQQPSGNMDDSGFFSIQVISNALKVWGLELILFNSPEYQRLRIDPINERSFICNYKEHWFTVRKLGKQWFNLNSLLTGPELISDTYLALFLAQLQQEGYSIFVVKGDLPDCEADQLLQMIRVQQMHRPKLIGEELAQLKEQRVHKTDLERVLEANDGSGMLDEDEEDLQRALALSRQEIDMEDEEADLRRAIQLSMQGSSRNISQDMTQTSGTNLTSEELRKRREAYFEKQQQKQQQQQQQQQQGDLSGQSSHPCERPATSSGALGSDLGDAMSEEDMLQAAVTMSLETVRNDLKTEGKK
UniProt Q92793: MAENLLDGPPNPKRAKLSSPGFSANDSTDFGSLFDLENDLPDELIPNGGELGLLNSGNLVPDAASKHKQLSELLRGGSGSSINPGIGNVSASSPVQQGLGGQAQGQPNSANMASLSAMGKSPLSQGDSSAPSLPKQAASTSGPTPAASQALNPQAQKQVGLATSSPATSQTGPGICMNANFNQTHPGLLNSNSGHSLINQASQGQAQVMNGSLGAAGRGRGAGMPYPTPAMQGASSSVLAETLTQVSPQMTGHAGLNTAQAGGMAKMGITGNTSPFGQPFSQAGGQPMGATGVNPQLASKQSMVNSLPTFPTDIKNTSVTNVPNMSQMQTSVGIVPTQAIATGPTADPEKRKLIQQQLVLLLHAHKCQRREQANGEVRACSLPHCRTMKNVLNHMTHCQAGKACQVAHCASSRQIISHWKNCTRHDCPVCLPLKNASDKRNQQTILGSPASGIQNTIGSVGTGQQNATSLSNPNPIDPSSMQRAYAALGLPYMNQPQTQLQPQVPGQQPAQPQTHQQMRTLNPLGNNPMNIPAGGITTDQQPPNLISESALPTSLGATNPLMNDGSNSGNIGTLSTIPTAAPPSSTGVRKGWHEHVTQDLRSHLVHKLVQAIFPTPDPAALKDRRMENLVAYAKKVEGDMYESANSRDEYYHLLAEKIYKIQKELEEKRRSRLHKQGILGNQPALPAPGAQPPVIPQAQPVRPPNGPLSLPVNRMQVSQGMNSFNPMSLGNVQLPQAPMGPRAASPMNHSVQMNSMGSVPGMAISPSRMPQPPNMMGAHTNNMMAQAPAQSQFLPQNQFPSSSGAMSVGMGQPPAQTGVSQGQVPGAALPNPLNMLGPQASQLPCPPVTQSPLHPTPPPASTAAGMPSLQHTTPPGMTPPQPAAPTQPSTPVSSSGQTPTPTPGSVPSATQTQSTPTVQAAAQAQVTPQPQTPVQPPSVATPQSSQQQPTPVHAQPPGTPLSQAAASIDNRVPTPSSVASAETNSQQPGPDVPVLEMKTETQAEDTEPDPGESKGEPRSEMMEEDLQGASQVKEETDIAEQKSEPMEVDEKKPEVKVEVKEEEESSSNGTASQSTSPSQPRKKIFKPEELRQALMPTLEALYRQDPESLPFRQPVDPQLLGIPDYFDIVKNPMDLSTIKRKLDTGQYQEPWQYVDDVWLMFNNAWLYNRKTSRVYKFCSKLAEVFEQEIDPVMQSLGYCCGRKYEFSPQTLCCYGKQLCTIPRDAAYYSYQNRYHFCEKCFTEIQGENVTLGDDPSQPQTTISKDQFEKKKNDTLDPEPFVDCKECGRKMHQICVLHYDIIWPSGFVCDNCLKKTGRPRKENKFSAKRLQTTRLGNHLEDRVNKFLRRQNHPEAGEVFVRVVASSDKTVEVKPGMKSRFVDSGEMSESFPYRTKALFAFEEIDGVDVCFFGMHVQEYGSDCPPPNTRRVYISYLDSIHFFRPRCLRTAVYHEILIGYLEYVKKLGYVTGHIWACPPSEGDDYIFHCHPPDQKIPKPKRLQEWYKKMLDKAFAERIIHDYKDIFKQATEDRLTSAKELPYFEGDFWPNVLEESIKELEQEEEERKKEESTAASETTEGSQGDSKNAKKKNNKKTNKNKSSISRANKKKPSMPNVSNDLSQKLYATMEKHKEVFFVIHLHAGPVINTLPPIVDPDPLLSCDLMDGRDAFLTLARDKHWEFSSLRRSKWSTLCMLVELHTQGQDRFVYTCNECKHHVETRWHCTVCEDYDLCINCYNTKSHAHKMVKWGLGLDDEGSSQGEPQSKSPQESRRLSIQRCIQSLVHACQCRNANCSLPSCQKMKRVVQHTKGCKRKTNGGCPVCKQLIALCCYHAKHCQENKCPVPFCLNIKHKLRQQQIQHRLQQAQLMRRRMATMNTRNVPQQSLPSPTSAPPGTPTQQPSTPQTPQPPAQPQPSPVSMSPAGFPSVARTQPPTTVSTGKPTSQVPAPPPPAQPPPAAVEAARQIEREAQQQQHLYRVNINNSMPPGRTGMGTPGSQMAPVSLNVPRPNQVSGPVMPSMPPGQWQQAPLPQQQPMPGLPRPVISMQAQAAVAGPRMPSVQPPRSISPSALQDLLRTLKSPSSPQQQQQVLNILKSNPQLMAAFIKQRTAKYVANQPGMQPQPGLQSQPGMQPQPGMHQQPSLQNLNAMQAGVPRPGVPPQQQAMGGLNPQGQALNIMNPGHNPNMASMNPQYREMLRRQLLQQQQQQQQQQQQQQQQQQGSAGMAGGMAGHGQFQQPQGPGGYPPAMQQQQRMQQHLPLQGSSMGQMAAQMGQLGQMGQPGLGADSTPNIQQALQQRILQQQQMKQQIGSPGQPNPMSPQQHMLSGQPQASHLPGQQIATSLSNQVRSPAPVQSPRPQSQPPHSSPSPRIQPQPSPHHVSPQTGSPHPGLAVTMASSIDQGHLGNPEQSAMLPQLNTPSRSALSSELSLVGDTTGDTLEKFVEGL
UniProt P54257: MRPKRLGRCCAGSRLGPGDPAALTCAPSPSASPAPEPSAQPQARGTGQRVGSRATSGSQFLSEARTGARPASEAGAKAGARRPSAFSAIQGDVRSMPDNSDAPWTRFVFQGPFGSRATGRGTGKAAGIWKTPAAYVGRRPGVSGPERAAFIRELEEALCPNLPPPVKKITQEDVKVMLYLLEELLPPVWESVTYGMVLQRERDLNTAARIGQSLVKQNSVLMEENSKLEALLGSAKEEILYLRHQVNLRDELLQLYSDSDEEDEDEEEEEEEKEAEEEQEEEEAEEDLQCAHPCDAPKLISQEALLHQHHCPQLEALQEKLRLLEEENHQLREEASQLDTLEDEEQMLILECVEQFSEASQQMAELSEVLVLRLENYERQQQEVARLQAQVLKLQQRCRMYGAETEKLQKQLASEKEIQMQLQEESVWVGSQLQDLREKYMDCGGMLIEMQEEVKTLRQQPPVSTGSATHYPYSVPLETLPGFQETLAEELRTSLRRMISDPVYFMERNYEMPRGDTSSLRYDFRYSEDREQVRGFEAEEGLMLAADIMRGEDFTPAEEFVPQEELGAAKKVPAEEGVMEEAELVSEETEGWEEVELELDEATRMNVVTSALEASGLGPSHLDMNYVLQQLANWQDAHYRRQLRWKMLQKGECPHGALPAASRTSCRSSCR
UniProt P27695: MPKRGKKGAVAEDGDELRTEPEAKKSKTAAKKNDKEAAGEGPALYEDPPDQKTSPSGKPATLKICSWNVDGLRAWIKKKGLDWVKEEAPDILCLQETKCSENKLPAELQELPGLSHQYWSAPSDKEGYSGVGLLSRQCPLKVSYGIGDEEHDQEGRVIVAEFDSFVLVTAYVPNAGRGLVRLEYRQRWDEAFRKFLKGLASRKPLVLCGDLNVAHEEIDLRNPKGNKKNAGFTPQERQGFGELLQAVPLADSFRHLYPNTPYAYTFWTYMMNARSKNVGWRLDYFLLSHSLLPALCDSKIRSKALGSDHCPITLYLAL

Tests used:
Myc-ATXN3 = Myc-ATXN3 (UniProt P54252); test: co-IP; HEK293 cells cotransfected with Myc-ATXN3 and FLAG-CBP; IP with Myc antibody (blot for CBP) or with FLAG antibody (blot for ATXN3) from nuclear extract
[1] = target: huntingtin (HTT), endogenous (human (endogenous in SH-SY5Y)) (UniProt P42858); test: co-IP; FLAG-tagged PNKP or its domains transfected into SH-SY5Y cells, nuclear extract 48 hr later; IP with anti-FLAG antibody (blot for endogenous HTT) or with anti-HTT antibody (blot with anti-FLAG)
FLAG-CBP = FLAG-CBP (UniProt Q92793); test: co-IP; HEK293 cells cotransfected with Myc-ATXN3 and FLAG-CBP; IP with Myc antibody (blot for CBP) or with FLAG antibody (blot for ATXN3) from nuclear extract
[2] = target: ataxin-3 (ATXN3), endogenous (human (endogenous in SH-SY5Y)) (UniProt P54252); test: co-IP; endogenous bait (HTT, ATXN3, PNKP or POLR2A) immunoprecipitated from benzonase-treated nuclear extract of SH-SY5Y cells; washed with 50 mM Tris-HCl pH 7.5, 200 mM NaCl, 1 mM EDTA, 1% Triton-X100, 10% glycerol; western blot of the immunocomplex
[3] = target: huntingtin (HTT), endogenous (human (endogenous in SH-SY5Y)) (UniProt P42858); test: as above
[4] = target: polynucleotide kinase-3'-phosphatase (PNKP), endogenous (human (endogenous in SH-SY5Y)) (UniProt Q96T60); test: as above
[5] = target: huntingtin (HTT), endogenous (human (endogenous in SH-SY5Y)) (UniProt P42858); test: proximity ligation; Duolink PLA on postmortem human brain sections, control and HD (mHTT-Q58)
[6] = target: polynucleotide kinase-3'-phosphatase (PNKP), endogenous (human (endogenous in SH-SY5Y)) (UniProt Q96T60); test: as above
[7] = target: huntingtin (HTT), endogenous (human (endogenous in SH-SY5Y)) (UniProt P42858); test: proximity ligation; Duolink PLA on fixed, permeabilised SH-SY5Y cells with pairs of mouse and rabbit primary antibodies; IgG as control
[8] = target: huntingtin-associated protein 1 (HAP-1), endogenous (human (endogenous in SH-SY5Y)) (UniProt P54257); test: as above
[9] = target: polynucleotide kinase-3'-phosphatase (PNKP), endogenous (human (endogenous in SH-SY5Y)) (UniProt Q96T60); test: as above
[10] = target: ataxin-3 (ATXN3), endogenous (human (endogenous in SH-SY5Y)) (UniProt P54252); test: as above
[11] = target: FLAG-tagged PNKP PHOS + KIN domains (C-terminal catalytic domain) (UniProt Q96T60); test: co-IP; FLAG-tagged PNKP or its domains transfected into SH-SY5Y cells, nuclear extract 48 hr later; IP with anti-FLAG antibody (blot for endogenous HTT) or with anti-HTT antibody (blot with anti-FLAG)
[12] = target: FLAG-tagged full-length PNKP (FL-PNKP) (UniProt Q96T60); test: as above

Molecule: FLAG-CBP (from UniProt Q92793 1-2442) (enzyme)
binding (Myc-ATXN3): binds

Molecule: FLAG-tagged PNKP PHOS + KIN domains (C-terminal catalytic domain) (from UniProt Q96T60 131-521) (domain or fragment)
binding [1]: binds

Molecule: FLAG-tagged full-length PNKP (FL-PNKP) (from UniProt Q96T60 1-521) (enzyme)
binding [1]: binds

Molecule: apurinic-apyrimidinic endonuclease 1 (APE1), endogenous (from UniProt P27695 1-318) (enzyme)
binding [2]: no binding
binding [3]: no binding
binding [4]: no binding

Molecule: cyclic AMP-response element-binding (CREB) protein (CBP), endogenous (from UniProt Q92793 1-2442) (enzyme)
binding [10]: binds
binding [2]: binds
binding [3]: binds
binding [4]: binds

Molecule: huntingtin (HTT), endogenous (from UniProt P42858 1-3142)
binding [11]: binds
binding [12]: binds

Molecule: huntingtin-associated protein 1 (HAP-1), endogenous (from UniProt P54257 1-671)
binding [7]: binds
binding [2]: binds
binding [3]: binds
binding [4]: binds

B2: TAFII 130 (TAF4), endogenous (protein, UniProt O00268 1-1085)
chain: MAAGSDLLDEVFFNSEVDEKVVSDLVGSLESQLAASAAHHHHLAPRTPEVRAAAAGALGNHVVSGSPAGAAGAGPAAPAEGAPGAAPEPPPAGRARPGGGGPQRPGPPSPRRPLVPAGPAPPAAKLRPPPEGSAGSCAPVPAAAAVAAGPEPAPAGPAKPAGPAALAARAGPGPGPGPGPGPGPGPGKPAGPGAAQTLNGSAALLNSHHAAAPAVSLVNNGPAALLPLPKPAAPGTVIQTPPFVGAAAPPAPAAPSPPAAPAPAAPAAAPPPPPPAPATLARPPGHPAGPPTAAPAVPPPAAAQNGGSAGAAPAPAPAAGGPAGVSGQPGPGAAAAAPAPGVKAESPKRVVQAAPPAAQTLAASGPASTAASMVIGPTMQGALPSPAAVPPPAPGTPTGLPKGAAGAVTQSLSRTPTATTSGIRATLTPTVLAPRLPQPPQNPTNIQNFQLPPGMVLVRSENGQLLMIPQQALAQMQAQAHAQPQTTMAPRPATPTSAPPVQISTVQAPGTPIIARQVTPTTIIKQVSQAQTTVQPSATLQRSPGVQPQLVLGGAAQTASLGTATAVQTGTPQRTVPGATTTSSAATETMENVKKCKNFLSTLIKLASSGKQSTETAANVKELVQNLLDGKIEAEDFTSRLYRELNSSPQPYLVPFLKRSLPALRQLTPDSAAFIQQSQQQPPPPTSQATTALTAVVLSSSVQRTAGKTAATVTSALQPPVLSLTQPTQVGVGKQGQPTPLVIQQPPKPGALIRPPQVTLTQTPMVALRQPHNRIMLTTPQQIQLNPLQPVPVVKPAVLPGTKALSAVSAQAAAAQKNKLKEPGGGSFRDDDDINDVASMAGVNLSEESARILATNSELVGTLTRSCKDETFLLQAPLQRRILEIGKKHGITELHPDVVSYVSHATQQRLQNLVEKISETAQQKNFSYKDDDRYEQASDVRAQLKFFEQLDQIEKQRKDEQEREILMRAAKSRSRQEDPEQLRLKQKAKEMQQQELAQMRQRDANLTALAAIGPRKKRKVDCPGPGSGAEGSGPGSVVPGSSGVGTPRQFTRQRITRVNLRDLIFCLENERETSHSLLLYKAFLK
binding [2]: binds
binding [3]: binds
binding [4]: binds

The next lines start with results.

binding (FLAG-CBP): binds
Molecule: Myc-ATXN3 (from UniProt P54252 1-361) (enzyme)

binding [5]: binds
binding [6]: binds
binding [7]: binds
binding [8]: binds
binding [9]: binds
binding [3]: binds
binding [4]: binds
Molecule: ataxin-3 (ATXN3), endogenous (from UniProt P54252 1-361) (enzyme)

binding [5]: binds
binding [7]: binds
binding [3]: binds
Molecule: polynucleotide kinase-3'-phosphatase (PNKP), endogenous (from UniProt Q96T60 1-521) (enzyme)
binding [2]: binds

binding [3]: binds
binding [4]: binds
B1: DNA ligase 3 (LIG 3), endogenous (enzyme, UniProt P49916 43-1009)
chain: LLHGHPLFLRRKPVLSFQGSHLRSRATYLVFLPGLHVGLCSGPCEMAEQRFCVDYAKRGTAGCKKCKEKIVKGVCRIGKVVPNPFSESGGDMKEWYHIKCMFEKLERARATTKKIEDLTELEGWEELEDNEKEQITQHIADLSSKAAGTPKKKAVVQAKLTTTGQVTSPVKGASFVTSTNPRKFSGFSAKPNNSGEAPSSPTPKRSLSSSKCDPRHKDCLLREFRKLCAMVADNPSYNTKTQIIQDFLRKGSAGDGFHGDVYLTVKLLLPGVIKTVYNLNDKQIVKLFSRIFNCNPDDMARDLEQGDVSETIRVFFEQSKSFPPAAKSLLTIQEVDEFLLRLSKLTKEDEQQQALQDIASRCTANDLKCIIRLIKHDLKMNSGAKHVLDALDPNAYEAFKASRNLQDVVERVLHNAQEVEKEPGQRRALSVQASLMTPVQPMLAEACKSVEYAMKKCPNGMFSEIKYDGERVQVHKNGDHFSYFSRSLKPVLPHKVAHFKDYIPQAFPGGHSMILDSEVLLIDNKTGKPLPFGTLGVHKKAAFQDANVCLFVFDCIYFNDVSLMDRPLCERRKFLHDNMVEIPNRIMFSEMKRVTKALDLADMITRVIQEGLEGLVLKDVKGTYEPGKRHWLKVKKDYLNEGAMADTADLVVLGAFYGQGSKGGMMSIFLMGCYDPGSQKWCTVTKCAGGHDDATLARLQNELDMVKISKDPSKIPSWLKVNKIYYPDFIVPDPKKAAVWEITGAEFSKSEAHTADGISIRFPRCTRIRDDKDWKSATNLPQLKELYQLSKEKADFTVVAGDEGSSTTGGSSEENKGPSGSAVSRKAPSKPSASTKKAEGKLSNSNSKDGNMQTAKPSAMKVGEKLATKSSPVKVGEKRKAADETLCQTKVLLDIFTGVRLYLPPSTPDFSRLRRYFVAFDGDLVQEFDMTSATHVLGSRDKNPAAQQVSPEWIWACIRKRRLVAPC
binding [2]: binds
